Measurements: PubChem BioAssay (NCATS)
“And” between values parts separate entries of the source, which are not always exact repeats. Equal values may be shown once. For some of these results: A note “side channel” means that the fit belongs to a control or component signal, not to the main read-out. Some compounds were tested as several samples or in several runs, with calls that do not always agree. The source made the active and inactive calls. Unless noted, the call rests on the fitted dose curve; in most records, active means well fitted curve in the direction sought with a large enough effect; inconclusive means small, poorly fitted or top-dose-only effect, or another doubt; inactive means no such curve, though single readings can be large; an effect the other way counts as inactive or inconclusive.

Experiments:
[1] = molecular target: Ubiquitin carboxyl-terminal hydrolase 1 (Homo sapiens) (UniProt O94782); assay: Inhibitors of USP1/UAF1: Pilot qHTS (AID 504865); further: potency means the concentration at half of the fitted maximal effect;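 further: rhodamine fluorescence freed from ubiquitin-rhodamine substrate followed over time; nearly all actives have a fitted effect of over 35% in size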; on activity change, negative = inhibition: top concentration of the series differs between compounds; on the % scale 0 is the no-effect control and ±100 the full control effect
Chain of UniProt O94782 (O94782 whole entry, looked up): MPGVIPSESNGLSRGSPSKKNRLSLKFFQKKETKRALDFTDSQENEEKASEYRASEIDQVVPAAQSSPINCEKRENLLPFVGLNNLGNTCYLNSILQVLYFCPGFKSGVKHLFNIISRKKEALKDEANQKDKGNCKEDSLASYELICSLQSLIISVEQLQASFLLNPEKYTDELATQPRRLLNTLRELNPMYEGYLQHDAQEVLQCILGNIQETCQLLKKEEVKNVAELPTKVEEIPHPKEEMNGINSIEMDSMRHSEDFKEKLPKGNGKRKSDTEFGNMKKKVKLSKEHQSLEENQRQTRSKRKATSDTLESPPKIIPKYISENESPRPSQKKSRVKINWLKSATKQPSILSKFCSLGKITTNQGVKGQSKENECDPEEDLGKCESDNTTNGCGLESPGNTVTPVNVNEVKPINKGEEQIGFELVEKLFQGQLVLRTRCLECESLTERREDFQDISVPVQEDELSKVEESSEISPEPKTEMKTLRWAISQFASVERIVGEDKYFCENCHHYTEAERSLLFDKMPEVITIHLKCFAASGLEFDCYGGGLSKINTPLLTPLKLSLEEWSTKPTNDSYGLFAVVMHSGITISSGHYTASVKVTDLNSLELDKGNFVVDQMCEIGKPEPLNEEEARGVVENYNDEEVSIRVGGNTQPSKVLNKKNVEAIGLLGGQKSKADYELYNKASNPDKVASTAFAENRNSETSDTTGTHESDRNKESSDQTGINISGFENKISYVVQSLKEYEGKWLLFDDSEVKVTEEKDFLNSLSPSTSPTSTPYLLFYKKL
Method in brief: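 1nM USP1/UAF1 + cpd, 15 min RT; start w/ Ub-Rho 150nM final; kinetic FL 480/540 nm, 6 reads q60 s. Buffer 50mM HEPES pH 7.8, 0.5mM EDTA, 1mM TCEP, 0.01% Tween-20, 0.1 mg/ml BSA.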

[2] = molecular target: Estrogen receptor (Homo sapiens) (UniProt P03372); assay: qHTS assay for small molecule agonists of estrogen receptor alpha signaling (AID 588514; calls by dose curve; further: nearly all actives have a fitted effect of over 70% in size; further: potency means the concentration at half of the fitted maximal effect;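 on activation: 0% = vehicle only and 100% = reference agonist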); conditions: ER-alpha-UAS-bla HEK293, beta-lactamase ratio, 18 h; activation: at 76.8 µM (top of the series), percent of full estradiol response, vehicle zero unless noted
Chain of UniProt P03372 (P03372 whole entry, looked up): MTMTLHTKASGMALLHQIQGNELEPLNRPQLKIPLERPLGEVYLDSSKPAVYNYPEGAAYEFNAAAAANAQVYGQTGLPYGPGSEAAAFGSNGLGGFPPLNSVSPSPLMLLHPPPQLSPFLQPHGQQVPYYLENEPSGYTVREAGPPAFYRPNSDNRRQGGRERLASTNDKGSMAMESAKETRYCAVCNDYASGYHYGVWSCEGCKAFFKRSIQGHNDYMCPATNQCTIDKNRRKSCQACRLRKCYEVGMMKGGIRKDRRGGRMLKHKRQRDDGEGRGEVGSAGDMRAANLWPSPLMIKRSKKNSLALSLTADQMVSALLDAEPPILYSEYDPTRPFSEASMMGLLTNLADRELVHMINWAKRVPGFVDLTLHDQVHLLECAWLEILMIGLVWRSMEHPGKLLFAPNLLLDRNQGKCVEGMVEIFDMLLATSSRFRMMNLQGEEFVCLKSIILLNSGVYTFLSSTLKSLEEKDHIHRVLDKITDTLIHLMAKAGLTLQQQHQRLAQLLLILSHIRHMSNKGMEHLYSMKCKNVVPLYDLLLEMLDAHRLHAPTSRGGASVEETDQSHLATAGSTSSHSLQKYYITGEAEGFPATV
Method in brief: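 Efficacy is expressed against 20 nM 17-beta-estradiol (100%) and DMSO basal (0%); EC50 from Hill equation. Assay: beta-lactamase reporter in ER-alpha-UAS-bla HEK 293 cells, 18 h compound incubation, CCF4 detection.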

[3] = molecular target: Peroxisome proliferator-activated receptor delta (Homo sapiens) (UniProt Q03181); assay: qHTS assay for small molecule antagonists of peroxisome proliferator-activated receptor delta signaling (AID 588535; active means well fitted inhibition curve with a large enough effect in the signal ratio, with a control signal flat, not every such curve was filed as active; inconclusive means small, poorly fitted or top-dose-only effect, or effect the other way, or a change in a side signal; inactive means no such curve, though single readings can be large or run the other way; the % refers to the signal ratio; further: potency means the concentration at half of the fitted maximal effect); conditions: HEK293T PPARd-UAS-bla, beta-lactamase FRET ratio, 18 h; activity change, negative = inhibition: at 76.7 µM (top of the series) unless noted
Chain of UniProt Q03181 (Q03181 whole entry, looked up): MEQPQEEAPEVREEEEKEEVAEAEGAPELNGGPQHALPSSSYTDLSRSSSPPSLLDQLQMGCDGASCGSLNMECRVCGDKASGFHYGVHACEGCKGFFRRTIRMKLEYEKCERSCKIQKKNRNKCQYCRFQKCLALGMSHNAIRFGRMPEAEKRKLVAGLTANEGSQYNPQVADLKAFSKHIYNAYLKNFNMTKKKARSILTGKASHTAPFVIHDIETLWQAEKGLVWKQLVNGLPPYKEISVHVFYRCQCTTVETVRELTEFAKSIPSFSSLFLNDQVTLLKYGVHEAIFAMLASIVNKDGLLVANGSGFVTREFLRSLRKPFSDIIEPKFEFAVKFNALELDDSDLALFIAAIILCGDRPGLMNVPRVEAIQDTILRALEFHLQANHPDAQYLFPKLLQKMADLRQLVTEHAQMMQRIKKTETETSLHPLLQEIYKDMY
Method in brief: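 Fluorescence from CCF4-loaded GeneBLAzer PPAR-delta-UAS-bla HEK293T cells (2 hrs RT loading) quantified reporter inhibition after an 18 hr, 37 C compound exposure across a titration.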

[4] = molecular target: Glucocorticoid receptor (Homo sapiens) (UniProt P04150); assay: qHTS assay for small molecule agonists of glucocorticoid receptor signaling (AID 588532; active means well fitted curve in the direction sought with a large enough effect in the signal ratio, with a control signal flat; inconclusive means small, poorly fitted or top-dose-only effect, or a change in a side signal; inactive means no such curve, though single readings can be large or run the other way; the % refers to the signal ratio; further: potency means the concentration at half of the fitted maximal effect); conditions: HeLa MMTV-bla, beta-lactamase ratio, agonist, 18 h; activation: hits give high values, percent of dexamethasone control, DMSO zero
Method in brief: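 MMTV-bla HeLa beta-lactamase reporter cells in 1% charcoal/dextran FBS medium, compounds up to 92 uM for 18 h at 37 C, CCF4 readout; normalized to 0.1 uM dexamethasone (100%), EC50 and efficacy from Hill fits.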

[5] = molecular target: Peroxisome proliferator-activated receptor gamma (Homo sapiens) (UniProt P37231); assay: qHTS assay for small molecule antagonists of peroxisome proliferator-activated receptor gamma signaling (AID 588537; active means well fitted inhibition curve with a large enough effect in the signal ratio, with a control signal flat, not every such curve was filed as active; inconclusive means small, poorly fitted or top-dose-only effect, or effect the other way, or a change in a side signal; the % refers to the signal ratio; further: potency means the concentration at half of the fitted maximal effect;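 further: reporter cells co-stimulated with 50 nM rosiglitazone agonist during compound treatment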; on activity, negative = inhibition: % of control where 0% means no effect); conditions: HEK293 PPARg-UAS-bla, beta-lactamase ratio, antagonist mode; activity, negative = inhibition: at 76.8 µM (top of the series)
Method in brief: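 Fluorescence at 460 and 530 nm (405 nm excitation) reported beta-lactamase cleavage of CCF4 after 2 h room-temperature loading. HEK293 reporter cells in 1% charcoal/dextran-treated FBS had received compound and rosiglitazone for 16 h.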

[6] = qHTS for Inhibitors of ATXN expression: Validation (AID 588378); further: nearly all actives have a fitted effect of over 75% in size; further: potency means the concentration at half of the fitted maximal effect; on activity change, negative = inhibition: on the % scale 0 is the no-effect control and ±100 the full control effect
Method in brief: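 Cells: HEK293-ATXN2-FFLuc, phenol-red free DMEM, 2 h attachment. Compound pin-transfer, 24 h, 37 degrees C, 5% CO2. CellTiter-Fluor 30 min, Ex405/Em525; Bright-Glo 5 min, luminescence 2 s exposure.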

[7] = molecular target: Estrogen receptor (Homo sapiens) (UniProt P03372); assay: qHTS assay for small molecule antagonists of estrogen receptor alpha signaling (AID 588513; active means well fitted curve in the direction sought with a large enough effect in the signal ratio, with a control signal flat, not every such curve was filed as active; inconclusive means small, poorly fitted or top-dose-only effect, or effect the other way, or a change in a side signal; inactive means no such curve, though single readings can be large or run the other way; the % refers to the signal ratio; further: potency means the concentration at half of the fitted maximal effect); conditions: ER-alpha-UAS-bla HEK293, beta-lactamase ratio, antagonist mode; activity, negative = inhibition: at 76.9 µM (top of the series) unless noted
Method in brief: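 Beta-lactamase reporter, antagonist mode, HEK 293 GripTite cells; 0.5nM E2 stimulus, 18 h, 37 C; CCF4 dye 2 h RT; fluorescence. IC50 and efficacy from Hill fits, normalized to E2 and DMSO.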

[8] = molecular target: Peroxisome proliferator-activated receptor gamma (Homo sapiens) (UniProt P37231); assay: qHTS assay for small molecule agonists of peroxisome proliferator-activated receptor gamma signaling (AID 588536; active means well fitted curve in the direction sought with a large enough effect in the signal ratio, with a control signal flat, not every such curve was filed as active; inconclusive means small, poorly fitted or top-dose-only effect, or effect the other way, or a change in a side signal; inactive means no such curve, though single readings can be large or run the other way; the % refers to the signal ratio; further: potency means the concentration at half of the fitted maximal effect;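 on activation: 0% = DMSO basal wells and 100% = rosiglitazone at 2 µM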); conditions: HEK293 PPARg-UAS-bla, beta-lactamase ratio, 16 h; activation: at 76.7 µM (top of the series), percent of rosiglitazone response, DMSO as zero
Method in brief: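 Compound treatment: 16 h, 37 C, HEK293 GeneBLAzer cells. Detection: CCF4, 2 h RT. Values: Hill-fit EC50, efficacy as % of 2 uM rosiglitazone.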

[9] = molecular target: Vitamin D3 receptor (Homo sapiens) (UniProt P11473); assay: qHTS assay for small molecule antagonists of vitamin D receptor signaling (AID 588541; calls by dose curve; further: potency means the concentration at half of the fitted maximal effect); conditions: HEK293T VDR-UAS-bla, beta-lactamase ratio, antagonist mode; activity change, negative = inhibition: at 76.7 µM (top of the series)
[10] = molecular target: Androgen receptor (Homo sapiens) (UniProt P10275); assay: qHTS assay for small molecule agonists of androgen receptor signaling (AID 588515; active means well fitted curve in the direction sought with a large enough effect in the signal ratio, with a control signal flat; inconclusive means small, poorly fitted or top-dose-only effect, or effect the other way, or a change in a side signal; inactive means no such curve, though single readings can be large or run the other way; the % refers to the signal ratio; further: on the % scale 0 is the no-effect control and ±100 the full control effect); conditions: AR-UAS-bla HEK293, beta-lactamase ratio, agonist 16 h; activation: hits give high values
Chain of UniProt P10275 (P10275 whole entry, looked up): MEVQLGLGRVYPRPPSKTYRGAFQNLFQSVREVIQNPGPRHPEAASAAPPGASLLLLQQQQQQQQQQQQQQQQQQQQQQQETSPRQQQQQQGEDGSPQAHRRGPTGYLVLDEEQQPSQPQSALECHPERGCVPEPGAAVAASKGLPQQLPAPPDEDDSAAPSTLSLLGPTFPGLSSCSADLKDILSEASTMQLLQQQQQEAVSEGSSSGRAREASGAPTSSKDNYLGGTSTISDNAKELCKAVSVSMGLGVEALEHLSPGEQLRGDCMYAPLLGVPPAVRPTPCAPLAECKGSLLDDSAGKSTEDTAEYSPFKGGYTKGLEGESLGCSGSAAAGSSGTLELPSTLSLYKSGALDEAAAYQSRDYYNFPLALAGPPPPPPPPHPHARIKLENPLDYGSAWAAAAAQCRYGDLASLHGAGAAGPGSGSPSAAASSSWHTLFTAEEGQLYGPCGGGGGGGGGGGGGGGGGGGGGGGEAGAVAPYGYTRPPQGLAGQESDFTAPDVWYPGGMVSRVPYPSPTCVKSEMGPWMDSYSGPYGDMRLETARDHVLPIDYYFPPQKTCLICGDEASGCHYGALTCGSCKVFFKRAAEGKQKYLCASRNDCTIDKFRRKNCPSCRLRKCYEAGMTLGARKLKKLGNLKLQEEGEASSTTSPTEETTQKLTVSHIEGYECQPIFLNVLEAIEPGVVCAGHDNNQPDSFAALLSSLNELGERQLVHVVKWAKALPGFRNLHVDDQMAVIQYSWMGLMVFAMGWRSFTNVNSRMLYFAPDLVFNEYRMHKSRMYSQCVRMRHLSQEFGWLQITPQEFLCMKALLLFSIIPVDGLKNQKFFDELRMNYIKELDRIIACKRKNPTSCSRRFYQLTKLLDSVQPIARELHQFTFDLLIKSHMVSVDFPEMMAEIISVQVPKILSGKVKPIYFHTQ
Method in brief: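 Stimulation of an AR-responsive β-lactamase reporter in GripTite HEK293 cells was measured after 16 h compound exposure at 37 °C, via CCF4 fluorescence after 2 h RT. EC50 from Hill fits, normalized to R1881 at 30 nM.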

[11] = molecular target: Androgen receptor (Homo sapiens) (UniProt P10275); assay: qHTS assay for small molecule antagonists of androgen receptor signaling (AID 588516; active means well fitted curve in the direction sought with a large enough effect in the signal ratio, with a control signal flat, not every such curve was filed as active; inconclusive means small, poorly fitted or top-dose-only effect, or effect the other way, or a change in a side signal; inactive means no such curve, though single readings can be large or run the other way; the % refers to the signal ratio; further: on the % scale 0 is the no-effect control and ±100 the full control effect); conditions: AR-UAS-bla HEK293, beta-lactamase ratio, antagonist mode, 16 h; activity change, negative = inhibition: at 76.8 µM (top of the series)
Method in brief: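 Antagonist mode: inhibition of R1881-stimulated (10 nM final) bla reporter in GeneBLAzer AR HEK 293 cells, 16 h at 37C, compounds titrated. IC50 and efficacy from Hill-equation fits of 405/460–530 nm FRET ratios.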

[12] = molecular target: Glucocorticoid receptor (Homo sapiens) (UniProt P04150); assay: qHTS assay for small molecule antagonists of glucocorticoid receptor signaling (AID 588533; active means well fitted inhibition curve with a large enough effect in the signal ratio, with a control signal flat, not every such curve was filed as active; inconclusive means small, poorly fitted or top-dose-only effect, or effect the other way, or a change in a side signal; the % refers to the signal ratio;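 further: cells stimulated with 2 nM dexamethasone as agonist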; further: potency means the concentration at half of the fitted maximal effect); conditions: HeLa MMTV-bla, GRE beta-lactamase ratio, antagonist mode, 18 h; activity change, negative = inhibition: at 76.8 µM (top of the series)
[13] = qHTS for Inhibitors of ATXN expression: Validation of Cytotoxic Assay (AID 588349); further: potency means the concentration at half of the fitted maximal effect
Method in brief: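 Titrated compounds are added to cultured HEK293 cells, which are then held at 37 degrees C for 72 hr; loss of intracellular ATP, measured with CellTiter Glo, indicates toxicity.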
Tags describe the fitted curve by direction and shape or compound fluorescence and quenching.

## CC(C)NCC(O)c1ccc(N)c(C#N)c1 (configuration not stated)
[1]
  Potency: inactive

## COCC(=O)N(c1c(C)cccc1C)C(C)C(=O)OC (configuration not stated)
[1]
  Potency: inactive
[2]
  activation: inconclusive: -3.93%
[3]
  Potency: inactive

## CCOP(=S)(OCC)Oc1cc(C)nc(C(C)C)n1
[1]
  Potency: inconclusive: 50.1 µM [inhibitor, partial curve, poor fit]
[4]
  Potency: inconclusive: 10 µM [side channel, falling, full curve, poor fit]
[5]
  activity, negative = inhibition: inconclusive: -1.39%

## O=c1[nH]c2ccccc2n1C1CCN(CCCC(c2ccc(F)cc2)c2ccc(F)cc2)CC1
[1]
  Potency: inconclusive: 17.8 µM [inhibitor, full curve] and inconclusive: 35.5 µM [inhibitor, partial curve, poor fit]
[6]
  Potency: inactive
[7]
  Potency: inconclusive: 8.91 µM [side channel, rising, full curve, poor fit]
[2]
  Potency: inactive
[8]
  Potency: inconclusive: 3.16 µM [side channel, rising, partial curve, poor fit]
[5]
  Potency: inconclusive: 10 µM [side channel, rising, full curve, poor fit]
[9]
  activity change, negative = inhibition: inconclusive: -47.9%

## CCOC(=O)C1(c2ccccc2)CCN(CCC(C#N)(c2ccccc2)c2ccccc2)CC1
[1]
  Potency: inconclusive: 4.47 µM [inhibitor, partial curve, poor fit]

## [O]=[Cr](=[O])([OH])[O][Cr](=[O])(=[O])[OH]
[1]
  Potency: active: 25.1 µM
[7]
  Potency: inconclusive: 50.1 µM [falling, single point] and inconclusive: 44.7 µM [falling, single point]
[2]
  Potency: inconclusive: 7.08 µM [side channel, rising, full curve, poor fit]
[10]
  activation: inconclusive: 14.3% and inconclusive: 3.33% and inconclusive: -9.02%
[11]
  activity change, negative = inhibition: inconclusive: -44.8% and inconclusive: -93.8%
[4]
  Potency: inconclusive: 0.02 µM [side channel, falling, full curve, poor fit]
[12]
  Potency: active: 10 µM and active: 39.8 µM and active: 12.6 µM
[3]
  activity change, negative = inhibition: inconclusive: -63.1% and inconclusive: 19.2%
[8]
  activation: inconclusive: 2.03% and inconclusive: 1.25%
[5]
  activity, negative = inhibition: inconclusive: -1.02%
[9]
  Potency: inactive

## O=[N+]([O-])C(Br)(CO)CO
[1]
  Potency: inactive
[7]
  activity, negative = inhibition: inconclusive: 9.99%
[9]
  Potency: inconclusive: 50.1 µM [inhibitor, single point]

## COP(=S)(OC)Oc1ccc(S(=O)(=O)N(C)C)cc1
[1]
  Potency: inactive

## COP(=S)(OC)Oc1ccc(Sc2ccc(OP(=S)(OC)OC)cc2)cc1
[1]
  Potency: inconclusive: 50.1 µM [inhibitor, partial curve, poor fit]
[7]
  activity, negative = inhibition: inconclusive: -57%
[5]
  Potency: inconclusive: 39.8 µM [inhibitor, partial curve, poor fit]

## O=C1C2CC=CCC2C(=O)N1SC(Cl)(Cl)Cl (configuration not stated)
[1]
  Potency: inconclusive: 70.8 µM [inhibitor, partial curve, poor fit]
[7]
  Potency: active: 12.6 µM [inconclusive] and active: 10 µM [inconclusive]
[2]
  Potency: inconclusive: 44.7 µM [side channel, rising, single point]
  activation: inconclusive: -7.04%
[3]
  Potency: inconclusive: 31.6 µM [side channel, rising, partial curve] and inconclusive: 25.1 µM [side channel, rising, partial curve]
[8]
  Potency: inconclusive: 28.2 µM [side channel, falling, full curve, poor fit]
  activation: inconclusive: -22.7%

## O=C(NC(=O)c1c(F)cccc1F)Nc1cc(Cl)c(OC(F)(F)C(F)C(F)(F)F)cc1Cl (configuration not stated)
[1]
  Potency: inconclusive: 11.2 µM [inhibitor, full curve, poor fit] and inconclusive: 11.2 µM [inhibitor, partial curve, poor fit]
[7]
  Potency: inactive
[10]
  activation: inactive: -6.9%
[12]
  activity change, negative = inhibition: inconclusive: 32.1%
[5]
  Potency: inactive

## C#C[C@]1(O)CC[C@H]2[C@@H]3CCC4=CC(=O)CCC4=C3C=C[C@@]21CC
[1]
  Potency: inconclusive: 50.1 µM [inhibitor, partial curve, poor fit]

## Cc1c(C(=O)c2cccc3ccccc23)c2cccc3c2n1[C@H](CN1CCOCC1)CO3
[1]
  Potency: inconclusive: 56.2 µM [inhibitor, partial curve, poor fit]
[13]
  Potency: inconclusive: 17.8 µM [cytotoxic, single point]
[6]
  Potency: active: 15.8 µM

## O=c1[nH]c2ccccc2n1CCCN1CCC(n2c(=O)[nH]c3cc(Cl)ccc32)CC1
[1]
  Potency: inactive
[13]
  Potency: inconclusive: 35.5 µM [cytotoxic, single point]
[6]
  Potency: inconclusive: 20 µM [inhibitor, single point]
